Numbering of substitutions follows the chain as printed. Where two headings read alike, the source gives them in different places.

The target in assay [1] is T1, human Claudin18.2 (human, UniProt P56856-2 1-261).
T1 construct: whole, on cells; expressed on Dubca, HEK293T, PANC1 cells by lentiviral transduction; endogenous on NUGC4 and KATOIII cells; also called huCLDN18.2; CLDN18.2
Kind of assay: flow cytometry, PANC1.huCLDN18.2.Luc cells (Example 7). Here is the method:
(§1) Briefly, 5.0×10⁵ PANC1.huCLDN18.1.Luc or PANC1.huCLDN18.2.Luc cells in DPBS (pH7.2) were incubated with serially diluted anti-Claudin18.2 VHH-hIgG1Fc at 4° C. for 45 min, followed by wash-centrifugation-supernatant depletion-cell washing cycles for 3 times with DPBS. After wash, cell pellets were re-suspended in DPBS and incubated with a secondary antibody (1:200, Alexa Fluor™ 488 GOAT anti-human IgG (H+L) Antibody, Invitrogen, Cat. No. A1 1013) at 4° C. for 30 min in dark. The cells were then subject to wash-centrifugation-supernatant depletion-cell washing cycles for 3 times with DPBS. The cells were then run on Attune NXT flow cytometry to detect antibody-PANC1.huCLDN18.1.Luc or PANC1.huCLDN18.2.Luc binding level. Binding capabilities of each test antibody were described as Percentage of Binding, calculated with (cells with antibody binding/total cells)× 100 %.
(§2) Coding sequence of selected clones of humanized single domain antibody were codon optimized for human codon biased expression with GenScript OptimumGene™-Codon Optimization. The resulting coding DNA fragments were synthesized and fused to nucleotides nucleotide coding human IgG1 Fc portion (SEQ ID NO:76), for transient expression in chimeric formats. […] The humanized chimeric anti-Claudin18.2 antibodies were obtained using the mothed described in Example 2. The binding capacity of humanized chimeric antibodies to PANC1.huCLDN18.1.Luc or PANC1.huCLDN18.2.Luc cells were measured.
Background: In flow cytometry, cells or beads pass a laser one at a time.

Assay [2] concerns the target T2, human Claudin18.1 (human, UniProt P56856 1-261).
T2 construct: whole, on cells; expressed on PANC1 cells (PANC1.huCLDN18.1.Luc); also called huCLDN18.1; CLDN18.1
Nature of the assay: flow cytometry on PANC1.huCLDN18.1.Luc cells, Binding %. Here is the method:
as §1, §2

The target in assay [3] is T1, human Claudin18.2. Nature of the assay: flow cytometry, PANC1.huCLDN18.2.Luc cells, at 10 nM. The procedure:
as §1

Assay [4] has as its target T2, human Claudin18.1. Nature of the assay: flow cytometry on PANC1.huCLDN18.1.Luc cells, Binding %. Here is the method:
as §1
The source holds these as a separate data set.

The target of assay [5] is T1, human Claudin18.2. Nature of the assay: flow cytometry, PANC1.huCLDN18.2.Luc cells, percentage of binding. The procedure:
as §1

Assay [6] addresses T1, human Claudin18.2. Nature of the assay: flow cytometry, PANC1.huCLDN18.2.Luc cells; end tied to this member by its EC50 10.92 nM in the 7th table. Here is the method: as §1
For assay [7], the target named is T1, human Claudin18.2. Nature of the assay: flow cytometry, PANC1.huCLDN18.2.Luc cells; end tied to this member by its EC50 0.71 nM in the 7th table. Here is the method: as §1
In assay [8] the target is T2, human Claudin18.1. Nature of the assay: flow cytometry on PANC1.huCLDN18.1.Luc cells, Binding %. This is another data set of the same source.
The target in assay [9] is T1, human Claudin18.2. Kind of assay: flow cytometry, PANC1.huCLDN18.2.Luc cells; end tied to this member by its EC50 0.2862 nM in the 10th table. Here is the method:
as §1
(§3) Coding sequence of selected clones of humanized single domain antibody were codon optimized for human codon biased expression with GenScript OptimumGene™-Codon Optimization. The resulting coding DNA fragments were synthesized and fused to nucleotides nucleotide coding human IgG1 Fc portion (SEQ ID NO:76), for transient expression in chimeric formats. […] The binding capacity of humanized chimeric antibodies to PANC1.huCLDN18.1.Luc or PANC1.huCLDN18.2.Luc cells were measured.

Assay [10] has as its target T2, human Claudin18.1. Kind of assay: flow cytometry on PANC1.huCLDN18.1.Luc cells, Binding %. This is another data set of the same source.
Assay [11] deals with T1, human Claudin18.2. Kind of assay: flow cytometry, PANC1.huCLDN18.2.Luc cells; end tied to this member by its EC50 25.45 nM in the 10th table. Here is the method:
as §1, §3

For assay [12], the target named is T2, human Claudin18.1. Nature of the assay: flow cytometry on PANC1.huCLDN18.1.Luc cells, Binding %. The source holds these as a separate data set.

B1: VHH182513H7-hIgG1Fc (Fc fusion)
chain: QVQLEESGGGSVQVGGSLRLSCAASGYRSSVCMGWVRQAPGKGLEWVAVIGRDGSTTYIDSVKGRFTISRDSAKNTLSLQMDNLKPEDTAMYSCAAGLGYWACEYNYWGQGTQVTVSS[in this place human IgG1 Fc]
notes: humanized VHH fused to human IgG1 Fc
Usually EC50 stands for the concentration that produces a half-maximal response. Low values mean an effect from little substance, high ones a need for much substance. For B1, the EC50 with human Claudin18.2 [1] amounted to 12.7 nM. For the same molecule, the binding result with human Claudin18.1 [2] is recorded as “no binding (tested: about 3000 nM)”.

B2: VHH182514-hIgG1Fc (Fc fusion)
chain: QVQLVESGGGSVQAGGSLSLSCAASGDTFHSKCMAWFRQGPGKEREVVATIQSGYYRPYYTDSVKGRFTISRDADKNRVYLQMDSLKPEDTAMYYCAADRFTYPYGVICGGISANYRYWGQGTRVTVSS[in this place human IgG1 Fc]
notes: chimeric antibody: camelid VHH fused to human IgG1 Fc
The molecule B2 returned a maximum binding% with human Claudin18.2 [3] of roughly 100%. In addition, in the assay with human Claudin18.1 [4], the binding result is reported as “no binding (tested: about 1000 nM)”. In the assay with human Claudin18.2 [5], this molecule returned an EC50 of 10.9 nM. The “fold higher binding potency than 175DX-hIgG1Fc” value in the assay with human Claudin18.2 [6] fell in the range of 1.24 to 19 fold.

B3: VHH182512-hIgG1Fc (Fc fusion)
chain: EVQLVESGGGSVQAGGSLTLSCEASRSTANMAWFRQGPGKEREGVAAAHSDGSTKYADSVKGRFTISKDNGKNTLYLRMNGLKPEEGVMYYCAARGSPWWNSVVALESYAYSYWGQGTQVTVSS[in this place human IgG1 Fc]
notes: as for B2
Take B3: the maximum binding% in the assay with human Claudin18.2 [3] was roughly 100%. Also, the binding result in the assay with human Claudin18.1 [4] was “no binding (tested: about 1000 nM)”. The same molecule showed an EC50 in the assay with human Claudin18.2 [5] of 0.71 nM. For the same molecule, the “fold higher binding potency than 175DX-hIgG1Fc” value with human Claudin18.2 [7] was in the range of 1.24 to 19 fold.

B4: VHH182511H9-hIgG1Fc (Fc fusion)
chain: QVQLLESGGGLVQPGGSLRLSCAASRSTYCMGWFRQAPGKGLERVANVYMRNGDTWLADSVKGRFTISRDNSKNAVYLQMTRLRAEDTAVYYCAAGRSSCLEASISYWGQGTLVTVSS[in this place human IgG1 Fc]
notes: as for B1
The molecule B4 displayed an EC50 in the assay with human Claudin18.2 [1] of 0.341 nM. Besides, the binding result with human Claudin18.1 [8] was “no binding (tested: about 100 nM)”.

B5: VHH182511H8-hIgG1Fc (Fc fusion)
chain: B4 chain with Q1E, T81N, R82S
notes: as for B1
Take B5: the EC50 in the assay with human Claudin18.2 [1] stood at 0.286 nM. Also, in the assay with human Claudin18.1 [2], the binding result was “no binding (tested: about 100 nM)”. Besides, in the assay with human Claudin18.2 [9], the “fold higher binding potency than 175DX-hIgG1Fc” value lay within 1.93 to 172 fold.

B6: VHH182513H1-hIgG1Fc (Fc fusion)
chain: QVQLVESGGGLVQPGGSLRLSCAASGYRSSVCMGWFRQAPGKERERVAVIGRDGSTTYIDSVKGRFTISRDSAKNTLSLQMDSLRAEDTAMYSCAAGLGYWACEYNYWGQGTLVTVSS[in this place human IgG1 Fc]
notes: as for B1
Turning to B6, a half-maximal effect with human Claudin18.2 [1] (EC50) was put at 2.38 nM. The binding result in the assay with human Claudin18.1 [10] is reported as “no binding (tested: about 3000 nM)”.

B7: VHH182513H8-hIgG1Fc (Fc fusion)
chain: B6 chain with L11V, G16R, E43G, R44L, S72N, A73S, S78Y, D82N, M91V, S93Y
notes: as for B1
For the molecule B7, the EC50 in the assay with human Claudin18.2 [1] amounted to 25.4 nM. In addition, the binding result with human Claudin18.1 [2] is “no binding (tested: about 3000 nM)”. For the same molecule, in the assay with human Claudin18.2 [11], the “fold higher binding potency than 175DX-hIgG1Fc” value lay in the range of 1.93 to 172 fold.

B8: VHH182513H9-hIgG1Fc (Fc fusion)
chain: B6 chain with L11V, G16R, E43G, R44L, S78Y, D82N, M91V, S93Y
notes: as for B1
Regarding B8, the EC50 in the assay with human Claudin18.2 [1] turned out to be 1.42 nM. Moreover, the binding result with human Claudin18.1 [12] was “no binding (tested: about 3000 nM)”.

B9: VHH182513H10-hIgG1Fc (Fc fusion)
chain: QVQLVESGGGVVQPGRSLRLSCAASGYRSSVCMGWFRQAPGKGLERVAVIGRDGSTTYIDSVKGRFTISRDNSKNTLYLQMNSLRAEDTAVYYCARGLGYWACEYNYWGQGTLVTVSS[in this place human IgG1 Fc]
notes: as for B1
B9 displayed an EC50 with human Claudin18.2 [1] of 5.03 nM. For the same molecule, in the assay with human Claudin18.1 [2], the binding result was “no binding (tested: about 3000 nM)”.

The record behind these values is US20230192841A1 (NANJING LEGEND BIOTECH, published 2023).
